Measurements taken from paper PMC5892938.
The other results are listed elsewhere or left out. At the low end of the ranking the order means little.

Molecular target: GST-SBP-SLBP (stem-loop binding protein) (UniProt Q14493)
Assay: targeted RNA Bind-n-Seq;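 further: DESeq read counts versus GST-SBP nonspecific binding control pulldown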
Conditions: RBNS binding buffer: 25 mM Tris pH 7.5, 150 mM KCl, 3 mM MgCl2, 0.1% Tween, 0.5 mg/mL BSA, 1 mM DTT; 27 nM protein, 750 pM RNA pool; temperature not stated; high values mean tight binding

Sequence	binding signal (log2 fold change)
GGUCACGUCUCAAUCAACUCAACUCCCAGGGAAAACCCUGGUAUACUCAACAGCUCGCAGUCAAG	0.0561
GGUCACGUCUCAAUCAACUCUUUUUCCAGGGAAAGCCCUGGCGUUUUCAACAGCUCGCAGUCAAG	-0.269
GGUCACGUCUCAAUCAACUCAUUAGAGGGGGGGAAAACCCCUUUGCCCUCCAUUUCAACAGCUCGCAGUCAAG	-0.35
GGUCACGUCUCAAUCAACUCUUCGCCCAGGGAAACCCCUGGUAAAUUCAACAGCUCGCAGUCAAG	-0.365
GGUCACGUCUCAAUCAACUCUUUCUCAGGAGUUUACUCCUGUUUAUUCAACAGCUCGCAGUCAAG	-0.203
GGUCACGUCUCAAUCAACUCUUUCCCAGGAGUUUACUCCUGUUUUCUCAACAGCUCGCAGUCAAG	0.00522
GGUCACGUCUCAAUCAACUCUUCUCCAGGAGUUUCCUCCUGUAUACUCAACAGCUCGCAGUCAAG	0.0827
GGUCACGUCUCAAUCAACUCUUCUCCCAGGGAAAGCCCUGGCUUACUCAACAGCUCGCAGUCAAG	-0.114
GGUCACGUCUCAAUCAACUCAUUCCCCAGGGAAAGCCCUGGCAUAUUCAACAGCUCGCAGUCAAG	0.17
GGUCACGUCUCAAUCAACUCUUCUUCAGGAGUUUUCUCCUGUAAACUCAACAGCUCGCAGUCAAG	0.117
GGUCACGUCUCAAUCAACUCAUAAGAGGGGGGGAAAACCCCUUUACCCUCACAAUCAACAGCUCGCAGUCAAG	-0.3
GGUCACGUCUCAAUCAACUCUCUCGAGGGGGGGAAAACCCCUUUACCCUCAUCGUCAACAGCUCGCAGUCAAG	-0.0779
GGUCACGUCUCAAUCAACUCAAUCCCCAGGGAAAACCCUGGCUAAUUCAACAGCUCGCAGUCAAG	-0.00819
GGUCACGUCUCAAUCAACUCUUCCUCCAGGGAAAGCCCUGGCUAUUUCAACAGCUCGCAGUCAAG	-0.0345
GGUCACGUCUCAAUCAACUCAGUUUCAGGAGUUUCCUCCUGUUUUUUCAACAGCUCGCAGUCAAG	-0.0191
GGUCACGUCUCAAUCAACUCAAUUCCAGGAGUUUUCUCCUGUAAAUUCAACAGCUCGCAGUCAAG	0.0914
GGUCACGUCUCAAUCAACUCAUUUUCAGGAGUUUCCUCCUGUUUAUUCAACAGCUCGCAGUCAAG	0.049
GGUCACGUCUCAAUCAACUCUUCUUCCAGGGAAAACCCUGGCAAUGUCAACAGCUCGCAGUCAAG	-0.084
GGUCACGUCUCAAUCAACUCAUCUCCCAGGGAAAACCCUGGUUAACUCAACAGCUCGCAGUCAAG	0.146
GGUCACGUCUCAAUCAACUCUUCCCCAGGAGUUUCCUCCUGCAUUUUCAACAGCUCGCAGUCAAG	0.0449
GGUCACGUCUCAAUCAACUCUUCCUCAGGAGUUUCCUCCUGUUAUCUCAACAGCUCGCAGUCAAG	0.0172
GGUCACGUCUCAAUCAACUCUCAAGAGGGGGGGAAAACCCCUUUGCCCUCAUCGUCAACAGCUCGCAGUCAAG	-0.345
GGUCACGUCUCAAUCAACUCUAUCGAGGGGGGGAAAACCCCUUUACCCUCCACAUCAACAGCUCGCAGUCAAG	0.0569
GGUCACGUCUCAAUCAACUCAUUCCCCAGGGAAAACCCUGGUUUACUCAACAGCUCGCAGUCAAG	0.0296
GGUCACGUCUCAAUCAACUCAUCCCCAGGAGUUUUCUCCUGUUUAGUCAACAGCUCGCAGUCAAG	0.204

Sequence	binding signal (log2 fold change)
GGUCACGUCUCAAUCAACUCAUCCCCCAGGGAAAGCCCUGGCUAAUUCAACAGCUCGCAGUCAAG	0.0465
GGUCACGUCUCAAUCAACUCAUCUUCCAGGGAAACCCCUGGCUUUCUCAACAGCUCGCAGUCAAG	-0.0234
GGUCACGUCUCAAUCAACUCUUUCUCAGGAGUUUUCUCCUGUAUAUUCAACAGCUCGCAGUCAAG	-0.00822
GGUCACGUCUCAAUCAACUCUACUUCAGGAGUUUUCUCCUGUAUACUCAACAGCUCGCAGUCAAG	0.105
GGUCACGUCUCAAUCAACUCCUUAGAGGGGGGGAAAACCCCUUUACCCUCGUCUUCAACAGCUCGCAGUCAAG	0.105
GGUCACGUCUCAAUCAACUCUUUUUCAGGAGUUUACUCCUGCAAUUUCAACAGCUCGCAGUCAAG	-0.0558
GGUCACGUCUCAAUCAACUCUACUCCAGGAGUUUUCUCCUGUUUUCUCAACAGCUCGCAGUCAAG	0.107
GGUCACGUCUCAAUCAACUCCCCAGAGGGGGGGAAAACCCCUUUACCCUCCACUUCAACAGCUCGCAGUCAAG	-0.35
GGUCACGUCUCAAUCAACUCAUUUUCCAGGGAAAGCCCUGGCUUUCUCAACAGCUCGCAGUCAAG	0.0425
GGUCACGUCUCAAUCAACUCAUCUCCCAGGGAAAGCCCUGGCUUACUCAACAGCUCGCAGUCAAG	0.0865
GGUCACGUCUCAAUCAACUCUAUGGAGGGGGGGAAAACCCCUUUACCCUCAAUUUCAACAGCUCGCAGUCAAG	-0.167
GGUCACGUCUCAAUCAACUCAAUCCCAGGAGUUUACUCCUGCUAACUCAACAGCUCGCAGUCAAG	0.206
GGUCACGUCUCAAUCAACUCCAAUGAGGGGGGGAAAACCCCUUUACCCUCCAAUUCAACAGCUCGCAGUCAAG	0.00976
GGUCACGUCUCAAUCAACUCAUUCCCCAGGGAAAUCCCUGGCUUAUUCAACAGCUCGCAGUCAAG	0.349
GGUCACGUCUCAAUCAACUCCUUCGAGGGGGGGAAAACCCCUUUACCCUCUACAUCAACAGCUCGCAGUCAAG	-0.0172
GGUCACGUCUCAAUCAACUCAUCCUCAGGAGUUUACUCCUGUUUUCUCAACAGCUCGCAGUCAAG	0.158
GGUCACGUCUCAAUCAACUCAUUCUCCAGGGAAACCCCUGGUAUUUUCAACAGCUCGCAGUCAAG	0.09
GGUCACGUCUCAAUCAACUCCCAAGAGGGGGGGAAAACCCCUUUACCCUCAUUCUCAACAGCUCGCAGUCAAG	-0.531
GGUCACGUCUCAAUCAACUCUAUAGAGGGGGGGAAAACCCCUUUGCCCUCACCUUCAACAGCUCGCAGUCAAG	0.126
GGUCACGUCUCAAUCAACUCAUCGUCAGGAGUUUUCUCCUGCAUUCUCAACAGCUCGCAGUCAAG	0.00916
GGUCACGUCUCAAUCAACUCUUCCUCAGGAGUUUACUCCUGUUAUCUCAACAGCUCGCAGUCAAG	0.0712
GGUCACGUCUCAAUCAACUCUUCAGAGGGGGGGAAAACCCCUUUACCCUCAUCGUCAACAGCUCGCAGUCAAG	-0.269
GGUCACGUCUCAAUCAACUCAUCCCCCAGGGAAACCCCUGGCAAACUCAACAGCUCGCAGUCAAG	-0.179
GGUCACGUCUCAAUCAACUCUUCUCCAGGAGUUUCCUCCUGUUUUCUCAACAGCUCGCAGUCAAG	0.0373
GGUCACGUCUCAAUCAACUCUAUUUCAGGAGUUUUCUCCUGUUUAUUCAACAGCUCGCAGUCAAG	-0.0417

Sequence	binding signal (log2 fold change)
GGUCACGUCUCAAUCAACUCAACUCCCAGGGAAAUCCCUGGUAAUUUCAACAGCUCGCAGUCAAG	0.119
GGUCACGUCUCAAUCAACUCUAUUUCAGGAGUUUACUCCUGUUUACUCAACAGCUCGCAGUCAAG	-0.0564
GGUCACGUCUCAAUCAACUCAUCCCCAGGAGUUUACUCCUGUAAUUUCAACAGCUCGCAGUCAAG	0.0863
GGUCACGUCUCAAUCAACUCUACUCCCAGGGAAAUCCCUGGUUAUUUCAACAGCUCGCAGUCAAG	-0.142
GGUCACGUCUCAAUCAACUCUAGUCCAGGAGUUUCCUCCUGUAAUCUCAACAGCUCGCAGUCAAG	0.0581
GGUCACGUCUCAAUCAACUCUAAAGAGGGGGGGAAAACCCCUUUGCCCUCCAACUCAACAGCUCGCAGUCAAG	0.187
GGUCACGUCUCAAUCAACUCCAUAGAGGGGGGGAAAACCCCUUUACCCUCCAUAUCAACAGCUCGCAGUCAAG	-0.131
GGUCACGUCUCAAUCAACUCAUCCCCAGGAGUUUCCUCCUGCAAAUUCAACAGCUCGCAGUCAAG	0.206
GGUCACGUCUCAAUCAACUCCAAAGAGGGGGGGAAAACCCCUUUACCCUCCAUAUCAACAGCUCGCAGUCAAG	0.0351
GGUCACGUCUCAAUCAACUCAAAAGAGGGGGGGAAAACCCCUUUGCCCUCGUAAUCAACAGCUCGCAGUCAAG	0.177
GGUCACGUCUCAAUCAACUCUUUUCCAGGAGUUUUCUCCUGCUAUUUCAACAGCUCGCAGUCAAG	-0.0723
GGUCACGUCUCAAUCAACUCAACUUCAGGAGUUUGCUCCUGUUUAUUCAACAGCUCGCAGUCAAG	0.0896
GGUCACGUCUCAAUCAACUCAAUCCCCAGGGAAAGCCCUGGUAAACUCAACAGCUCGCAGUCAAG	0.271
GGUCACGUCUCAAUCAACUCAUCUUCCAGGGAAACCCCUGGUUAUCUCAACAGCUCGCAGUCAAG	-0.13
GGUCACGUCUCAAUCAACUCUAUCCCAGGAGUUUUCUCCUGUUAAUUCAACAGCUCGCAGUCAAG	0.172
GGUCACGUCUCAAUCAACUCUUUUUCAGGAGUUUUCUCCUGUUUACUCAACAGCUCGCAGUCAAG	-0.021
GGUCACGUCUCAAUCAACUCUAUUCCAGGAGUUUACUCCUGCUUAUUCAACAGCUCGCAGUCAAG	-0.171
GGUCACGUCUCAAUCAACUCAAUUUCCAGGGAAAACCCUGGUUAACUCAACAGCUCGCAGUCAAG	-0.282
GGUCACGUCUCAAUCAACUCUUACGAGGGGGGGAAAACCCCUUUGCCCUCAUUCUCAACAGCUCGCAGUCAAG	0.195
GGUCACGUCUCAAUCAACUCAACUCCCAGGGAAAGCCCUGGCUAUUUCAACAGCUCGCAGUCAAG	-0.0393
GGUCACGUCUCAAUCAACUCUACGCCAGGAGUUUUCUCCUGUAUAUUCAACAGCUCGCAGUCAAG	-0.0843
GGUCACGUCUCAAUCAACUCCACGGAGGGGGGGAAAACCCCUUUACCCUCAUAAUCAACAGCUCGCAGUCAAG	0.229
GGUCACGUCUCAAUCAACUCAUCAGAGGGGGGGAAAACCCCUUUACCCUCCGUUUCAACAGCUCGCAGUCAAG	0.0998
GGUCACGUCUCAAUCAACUCUUCGCCCAGGGAAACCCCUGGUUUAUUCAACAGCUCGCAGUCAAG	-0.186
